Results from the RNAGym collection of RNA variant scans (doi:10.7554/elife.90254).
Read counts are not given, so values of variants with three or more changes are uncertain.

B1: OR4K15 (parent)
chain: GUUAACGGUCAUAGGCCAUGGAAACUAGGAGCACCAUUUCGCUGCCAGUGAAGAAAUGAACAAAGAAAAUCUGGGCCAGGCAGGCAUCAAAAGAAAUAGUCUUGCGCUCAACCAGAAAGUCUGUAAUCAUUUUAAGGGUA

Variants of: B1
Test: self-cleavage, relative activity (ratio to wild type); higher = more cleavage; in vitro, sequencing; the parent is a self-cleaving ribozyme

Variant	self-cleavage
GUUAACGGUCAUAGGCCAUGGAAACUAGGAGCACCAUUUCGCCGCCAGUGAAGAAAUGAACGAAGAAAAUCUGGGCCAGGCAGGCAUCAAAGGAAAUAGUCUUGCGCUCAACCAGAAAGUCUGAAAUCAUUUUAAGGGUA [U43C A62G A92G U124A]	0.13
GCUAACGGUCAUAGGCUAUGGAAACUAGGAGCACCAUUUCGCUGCCAGUGAGGAAAUGAACAAAGAAAAUCUGGGCCAGGCAGGCAUCAAAAGAAAUAGUCUUGCGCUCAACCAGAAAGUCUGUAAUCAUCUUAAGGGUA [U2C C17U A52G U131C]	0.14
GUUAACGGUCAUAGGCCAUGGAAACUAGGAGCGCCACUUCGCUGCCAGUGAAGAAAUGAACAAAGAAAACCUGGGCCAGGCAGGCAUCAAAAGAAACAGUCUUGCGCUCAACCAGAAAGUCUGUAAUCAUUUUAAGGGUA [A33G U37C U70C U97C]	0.08
GUUAACGGUCAUAGGCCAUGGAAACUGGGAGCACCAUUUCGCAGCCAGAGAAGAAAUGAACAAAGAAAAUCUGGGCCAGGCAGGCAUCAAAAGAAAUGGUCUUGCGCUCAACCAGAAAGUCUGUAAUCAUUUUGAGGGUA [A27G U43A U49A A98G A134G]	0.31
GUUAACGGUCAUAGGCCAUGGAAACUAGGAGCACCAUUUCGCUGCCAGCGAAGAAAUGAACAAAGAAAGUCUGGGCCAGGCAGGCAUCAAAAGAAAUAGUCUUGCGCUCAACCAGGAAGUCUGUAAUCAUUUUAAGGGUA [U49C A69G A116G]	0.47
GUUAACGGUCAUAGGCCAUGGGGACUAGGAGCACCACUUCGCUGCCAGUGAAGAAAUGAACAAAGAAAAUCUGGGCCAGGCAGGCAUCAAAAGAGAUAGUCUUGCGCUCAACCAGAAAGUCUGUAAUCAUUUUAAGGGUA [A22G A23G U37C A95G]	1.18
GUUAACGGUCAUAGGCCAUGGAAACUAGGGGCACCAUUUCGCUGCCAGUGAAGAAAUGAACAAAGAAAUUCUGGGCCAGGCAGGCAUCAAAAGAAAUAGCCUUGCGCACAACCAGAAAGUCUGUAAUCAUUUUAAGGGUA [A30G A69U U100C U108A]	0.11
GUUAACGGUCAUAGGCCAUGGAAACUAGGAGCACCAUUUCGCAGCCAGUGAAGAAAUGAACAAAGAAAAUCUAGGCCAGGCAGGCACCAAAAGAAGUAGUCUUGCGCUCAACCAGAAAGUCAGUAAUCAUUUUAAGGGUA [U43A G73A U87C A96G U122A]	0.07
GUUAACAGUCAUAGGCCAUGGAAACUAGGAGCACCAUUUCGCUGCCAGUGAAGAAACGAACAAAGAAAAUCUGGGCCAGGCAGGCAUCAAAAGUAAUAGUCUUGCGCUCAACCAGAAAGUCUGUAAUCAUUUUAAGGGUA [G7A U57C A94U]	1.63
GUUAACGGUCGUAGGCCAUGGAAACUAGGAGCACCAUUUCGCUGCCAGUGAAGAAAUGAACAAAGAAAAUCUGGGCCAGGCAGGCAUUAAAAGAAAUAAUCUUGCGCUCAACCAGAAAGUCUGUAAUCAUUUUAAGGGUA [A11G C88U G99A]	1.27
GUUAACGGUCAUAGGCCAUGGAAGCUAGGAGCACCAUUUCGCUGCCAGUGAAGAAAUGAACAAAGAAAAUCUGGGCCAGGCAGGCAUCAAAAGAAAUAGUCUUGCGCUCAACCAGUGAGUCUGUAAUCAUUUUAAGGGUA [A24G A116U A117G]	0.36
GUUAACGGUCAUAGGCCAUGGAAACUAGGAGCACCAUUUCGCUGCCAGUGAAGAAAUGAACAAAGAGAAUCCGGGCCAGGCAGGCAUCAAAAGAAAUGGUCUUGCGCUCAACCAGAAAGUCUGUAAUCAUUUUAAGGGUA [A67G U72C A98G]	0.03
GUUAACGGUCAUAGGCCAUGGAAACUAGGAGCACCAUUUCGCUGCCAGUGAAGAAAUGAACGAAGAAAAUCUGGGCCAGGCAGGCAUCAAAAGAAAUAGUCCUGCGCUCAACCAGAAAGUCAGUAAUCAUUUUAAGGGUA [A62G U102C U122A]	2.31
GUUAACGGUCAUGGGCCAUGGAAACUAGGAGCACCAUUUCGCUGCCAGUGAAGAAACGAACAAAGAAAAUCUGGGCCGGGCAGGCAUCAAAAGAAAUAGUCUUGCGCUCAACCAGAAAGUCUGUAAUCAUUUUAAGGGUA [A13G U57C A78G]	0.74
GUUAACGGUCAUAGGCCAUGGAAACUAGGAGCACCAUUCCGCUGCCAGUGUAGAAAUGAACAAAGAAAAUCUGGGCCAGGCAGGCAUCAAAAGAAAUAGCCUUGCGCUCAACCAGAAAGCCUGUAAUCAUUUUAAGGGUA [U39C A51U U100C U120C]	2.93
GUUAACGGUCAUAGGCCAUGGGAACUAGGAGCACCAUUUCGCUGCCAGUGAAGAAAUGAACAAAGAAAAUCUGGGCCAGGCAGGCAUCAAGAGAAAUAGUCUUGCGCUCAACCAGGGAGUCUGUAAUCAUUUUAAGGGUA [A22G A91G A116G A117G]	0.18
GUUGACGGUCAUAGACCAUGGAAACUAGGAGCACCAUUUCGCUGCCAGUGAAGAAAUGAACAAAGAAAAUCUGGGCCAGGCAGGCAUCAAAAGAAAUAGUCUUGUGCUCAACCAGAAAGACUGUAACCAUUAUAAGGGCA [A4G G15A C105U U120A U127C U132A U139C]	0.06
GUUAACGGUCAUAGGCCAUGGAAACUAGGGGCUCCAUUUCGCUGCCAGUGAAGAAAUGAACAAAGAAAAUCUGGGCCAGGCAGGCAUCAAAAGAAAUAGUCUUGCGCUCAACCUGAAAGUCUGUAAUCAUUUUAAGGGUA [A30G A33U A114U]	0.09
GUUAACGGUCAUAGGCCAUGGAAACUAGGAGCACCAUUUCGCUGCCGGUGAAGAAAUGAACAAAGAAAAUCUGGGCCAGGCAGGCCUCAAAAGAAAUAGUCUUGCGCUCAACCAGAAAGUCUGUAAUCAGUUUAAGGGUA [A47G A86C U130G]	0.45
GUUAACGGUCAUAGGCCAUGGAAACUAGGAGCACCAUUUCGCUGCCAGUGAAGAAAUGAACAAGGAAAAUCUGGGCCAGGCAGGCAUCAAAAGAAAUAGUCUUGCGCUCAACCAGAAAGUCUGUAAUCGUUCUAAGGGUA [A64G A129G U132C]	2.03
